A number of entries come with more than one value. This list holds those alone. There may be further records. The records of an entry are repeats (runs, samples, wells, individuals or studies).
What was measured:
Assay type in all cases: toxicity, cell-based
U2OS = assay: Multiplex assay against U2OS; settings: human, number of replicates 2
Procedure, shortened: (§1)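 With compound added, live cells were imaged on a CQ1 microscope at 37°C and 5% CO2; staining with Hoechst33342, BioTracker Green Microtubule Cytoskeleton Dye, MitoTracker Red and Annexin V Alexa Fluor 680 had been done at seeding. The CellPathfinder machine-learning gating scheme split cells into Hoechst high-intensity objects or normal cells, normal cells into healthy, pyknosed or fragmented nuclei, and pyknosed cells into mitotic or apoptotic. The tubulin, mitochondrial-mass and membrane-permeability phenotypes are per cents of healthy-nucleus cells.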

HEK-293T = assay: Multiplex assay against HEK293T; settings: human, 24 h, number of replicates 2; procedure, shortened: as §1
Fibroblast = assay: Multiplex assay against human fibroblast; settings: 48 h, 10 µM, compound concentration 10 uM, number of replicates 2; procedure, shortened: as §1
[1] = 12 h, 1 µM, compound concentration 1 uM
[2] = 12 h, 10 µM, compound concentration 10 uM
[3] = 24 h, 10 µM, compound concentration 10 uM
[4] = 48 h, 1 µM, compound concentration 1 uM
[5] = 48 h, 10 µM, compound concentration 10 uM
[6] = 24 h, 1 µM, compound concentration 1 uM

| SMILES | Population Fragmented Nuclei (%) (U2OS; [1]) | Population Membrane Permeable-Phenotype (%) (U2OS; [1]) | Population Fragmented Nuclei (%) (U2OS; [2]) | Total Cell Count (U2OS; [2]) | Population Healthy Nuclei (%) (U2OS; [3]) | Total Cell Count (U2OS; [3]) | Total Cell Count (U2OS; [4]) | Total Cell Count (U2OS; [5]) | Population Mitotic Cells (%) (U2OS; [1]) | Total Cell Count (U2OS; [1]) | Total Cell Count (U2OS; [6]) | Population Fragmented Nuclei (%) (U2OS; [3]) | Population Fragmented Nuclei (%) (U2OS; [4]) | also measured |
| --- | --- | --- | --- | --- | --- | --- | --- | --- | --- | --- | --- | --- | --- | --- |
| CC(C)S(=O)(=O)c1ccccc1Nc1nc(N[C@@H]2CCCN(CCCCCCCNC(=O)COc3cccc4c3C(=O)N(C3CCC(=O)N(C)C3=O)C4=O)C2)ncc1Cl (stereo partly specified) | 42% and 4% | 17% and 5% | 29% and 5% | 31 and 236 | 8% and 30% | 25 and 254 | 57 and 212 | 23 and 234 |  |  |  |  |  | Population Mitotic Cells (%) (HEK-293T; 1 µM, compound concentration 1 uM): 51% and 16% |
| Cc1cc(C2CCCNC2)ccc1Nc1ncc(Br)c(NCc2cccc3c2C(C)(C)C(=O)N3)n1 (stereo unspecified) | 32% and 10% |  |  | 59 and 339 | 19% and 63% | 47 and 328 |  | 46 and 329 |  |  |  |  |  | Population Fragmented Nuclei (%) (U2OS; [6]): 26% and 5%; Population Healthy Nuclei (%) (U2OS; [5]): 4% and 48%; Population Membrane Permeable-Phenotype (%) (Fibroblast): 25% and 6% |
| COCCNC1CCC(Nc2cc(-c3csc(NCC4(C#N)CCOCC4)n3)c(Cl)cn2)CC1 (stereo unspecified) |  | 28% and 7% |  | 181 and 51 | 6% and 33% | 45 and 165 | 188 and 31 | 44 and 160 | 55% and 12% | 41 and 204 | 36 and 213 |  |  | Population Healthy Nuclei (%) (U2OS; [2]): 48% and 12%; Population Membrane Permeable-Phenotype (%) (U2OS; [2]): 29% and 0%; Population Mitotic Cells (%) (U2OS; [6]): 40% and 5%; Population Mitotic Cells (%) (U2OS; [4]): 1% and 21%; Population Mitotic Cells (%) (HEK-293T; 10 µM, compound concentration 10 uM): 8% and 32% |
| Cc1onc(-c2ccccc2Cl)c1C(=O)N(C)c1ccc(Cl)cc1 | 28% and 2% | 20% and 4% | 34% and 4% | 69 and 243 |  | 94 and 333 | 78 and 604 | 140 and 611 |  | 35 and 179 | 40 and 275 | 23% and 3% | 17% and 2% | Population Fragmented Nuclei (%) (U2OS; [6]): 17% and 2%; Population Membrane Permeable-Phenotype (%) (U2OS; [6]): 20% and 5%; Population Fragmented Nuclei (%) (U2OS; [5]): 16% and 1%; Population Fragmented Nuclei (%) (Fibroblast): 3% and 15% |
| C[C@@H]1CC[C@@]2(OC1)O[C@H]1[C@@H](O)[C@H]3[C@@H]4CC[C@H]5C[C@@H](O[C@@H]6O[C@H](CO)[C@H](O[C@@H]7O[C@H](CO)C(O)[C@H](O[C@@H]8OC[C@@H](O)[C@H](O)[C@H]8O)[C@H]7O[C@@H]7O[C@H](CO)[C@H](O)[C@H](O[C@@H]8O[C@H](CO)[C@@H](O)[C@H](O)[C@H]8O)[C@H]7O)[C@H](O)[C@H]6O)[C@H](O)C[C@]5(C)[C@H]4CC[C@]3(C)[C@H]1[C@@H]2C (stereo partly specified) [DIGITONIN] |  |  | 27, 9, 4, 2% | 37, 32, 250, 275 |  | 43, 49, 365, 375 |  | 75, 90, 728, 826 |  |  |  | 18% and 4% |  | Population Mitotic Cells (%) (U2OS; [2]): 50, 0, 60, 34%; Population Mitotic Cells (%) (U2OS; [3]): 50, 16, 41, 63%; Population Fragmented Nuclei (%) (U2OS; [5]): 17, 16, 1, 2%; Population Mitotic Cells (%) (U2OS; [5]): 30, 0, 37, 48%; Population Mitotic Cells (%) (Fibroblast): 10, 35, 25, 40%; Population Pyknosed Nuclei (%) (Fibroblast): 5%, 20%, 15% |
| C[C@@H](Oc1cc(-n2cnc3ccc(OC4CCN(C)CC4)cc32)sc1C(N)=O)c1ccccc1Cl [GSK-579289A] |  |  |  | 192 and 46 |  | 48 and 206 | 228 and 38 | 43 and 165 | 0% and 52% | 42 and 250 | 32 and 253 |  | 7% and 23% | Population Mitochondria Different-Phenotype (%) (U2OS; [1]): 9% and 28%; Population Mitochondria Different-Phenotype (%) (U2OS; [6]): 11% and 34%; Population Mitochondria Different-Phenotype (%) (U2OS; [4]): 42% and 4%; Population Mitotic Cells (%) (U2OS; [4]): 4% and 25%; Population Membrane Permeable-Phenotype (%) (Fibroblast): 4% and 19% |
| CC(C)N(CCCCOCC(=O)NS(C)(=O)=O)c1cnc(-c2ccccc2)c(-c2ccccc2)n1 [SELEXIPAG] |  |  |  | 45 and 272 |  | 63 and 382 | 52 and 732 | 116 and 824 | 0% and 61% | 21 and 221 | 36 and 317 | 20% and 3% | 15% and 1% | Population Pyknosed Nuclei (%) (U2OS; [4]): 17% and 4%; Population Mitotic Cells (%) (Fibroblast): 10% and 40% |

— ChEMBL document CHEMBL5303300, “EUbOPEN Chemogenomics Library - Multiplex” (2023)
